Among all 310,000 compounds or so, about 14,000 (4.5%) showed an effect of 50% or more. The effect is printed as a negative number. The list shows a part of the results.
These compounds were tested against human ether-à-go-go-related gene (hERG) potassium channel (human, UniProt Q12809) (assay: primary screen, population patch clamp on CHO cells stably expressing hERG).
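Note: peak tail current of the secondary pulse compared with the same well before compound.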

Chain of human ether-à-go-go-related gene (hERG) potassium channel (Q12809 whole entry, looked up): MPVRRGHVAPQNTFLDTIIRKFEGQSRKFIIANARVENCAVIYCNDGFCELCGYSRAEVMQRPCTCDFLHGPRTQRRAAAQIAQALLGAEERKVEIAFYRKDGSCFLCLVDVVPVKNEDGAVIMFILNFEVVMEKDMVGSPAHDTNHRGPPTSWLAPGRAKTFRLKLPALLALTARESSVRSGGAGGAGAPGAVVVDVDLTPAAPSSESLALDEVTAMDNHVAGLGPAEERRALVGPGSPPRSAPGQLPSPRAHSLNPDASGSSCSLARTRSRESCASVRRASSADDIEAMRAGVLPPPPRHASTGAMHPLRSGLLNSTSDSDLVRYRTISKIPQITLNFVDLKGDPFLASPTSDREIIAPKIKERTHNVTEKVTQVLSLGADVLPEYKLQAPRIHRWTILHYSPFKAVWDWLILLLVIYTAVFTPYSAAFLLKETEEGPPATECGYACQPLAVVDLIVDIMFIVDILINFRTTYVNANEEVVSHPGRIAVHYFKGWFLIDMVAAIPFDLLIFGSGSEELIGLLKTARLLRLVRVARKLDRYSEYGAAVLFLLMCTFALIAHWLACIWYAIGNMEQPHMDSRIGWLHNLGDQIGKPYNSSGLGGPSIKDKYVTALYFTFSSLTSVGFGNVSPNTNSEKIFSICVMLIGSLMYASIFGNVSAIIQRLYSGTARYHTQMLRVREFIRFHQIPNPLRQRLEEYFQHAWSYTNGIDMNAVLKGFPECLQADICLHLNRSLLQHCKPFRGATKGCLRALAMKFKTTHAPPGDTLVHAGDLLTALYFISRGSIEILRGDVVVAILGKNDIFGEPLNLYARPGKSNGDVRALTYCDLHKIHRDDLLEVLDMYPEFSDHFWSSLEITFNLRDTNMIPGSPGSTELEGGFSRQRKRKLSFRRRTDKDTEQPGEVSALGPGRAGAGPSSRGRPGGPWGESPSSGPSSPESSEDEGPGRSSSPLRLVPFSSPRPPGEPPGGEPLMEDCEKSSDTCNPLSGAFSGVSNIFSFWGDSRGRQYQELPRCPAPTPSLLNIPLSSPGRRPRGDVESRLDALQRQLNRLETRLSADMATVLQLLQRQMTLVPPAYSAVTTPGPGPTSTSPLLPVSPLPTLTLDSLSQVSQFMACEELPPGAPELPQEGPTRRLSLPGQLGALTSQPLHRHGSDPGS

Structure (SMILES) | hERG current change (%, negative = inhibition) at 10uM [%]
O=c1c2ccccc2nc(CNCc2ccco2)n1-c1ccc(F)cc1 | -17.5
CCOc1ccc(NC(=O)CN(C)C(=O)c2ccc(C3SCCS3)cc2)cc1OCC | -0.427
N=c1c(C(=O)NC2CCCCC2)cc2c(=O)n3ccccc3nc2n1CC1CCCO1 (centres unmarked) | -74.9
COc1ccc(CNC(=O)CSc2nnc3c(n2)[nH]c2ccc(F)cc23)cc1 | 7.99
CCOc1ccc(-n2nnnc2SCC(=O)Nc2ccc(NC(C)=O)cc2)cc1 | 22.8
CCN(CC)C(=O)CSc1nc2nc(C)cc(C)c2c(=O)[nH]1 | 15.4
CCCN1C2=C(C(=O)CCC2)C(c2ccc(O)c(Br)c2)C2=C1CCCC2=O | -18.1
O=C(NCCN1CCNC1=O)C1CCC(=O)N(Cc2cccc(C(F)(F)F)c2)C1 (centres unmarked) | 12.9
CCOC(=O)Cc1csc(NC(=O)CSc2nnc3ccccn23)n1 | 12.2
Cc1ccc(N(CN2CCCC2=O)C(=O)c2ccccc2)cc1 | 22.4
O=C(CC(c1ccccc1)c1cc(Cl)ccc1O)N1CCOCC1 (centres unmarked) | -15.1
CC(C)(C)c1nn(-c2ccccc2)c2[nH]c(=O)c(C=O)cc12 | 8.56
COc1ccc(OC)c(CCNC(=O)CCc2nnc3ccc(N4CCOCC4)nn23)c1 | 16.1
CCn1c(CC(=O)Nc2ccccc2)nnc1SCC(=O)NC1=NCCS1 | 12.9
Cc1ccccc1C1CCCN(Cc2nc(CC3CC3)no2)C1 (centres unmarked) | -12.7
COC(=O)c1ccc(NS(=O)(=O)c2ccc(-c3cc(C)no3)s2)cc1 | 10.5
O=C(Nc1ccc2c(c1)C(=O)OC2)c1ccc(Cl)cc1 | 20.7
CCCCC(=O)Nc1ccccc1N1CCN(c2ccccc2)CC1 | 3.1
Cc1ccc(CNC(=O)CNS(=O)(=O)c2ccc(Br)s2)cc1 | -0.279
Cc1cccc(OCC(=O)N(Cc2ccco2)C2CCS(=O)(=O)C2)c1C (centres unmarked) | -32.8
Cc1ccccc1OC(C)C(=O)Nc1cccnc1 (centres unmarked) | 10.4
O=C1NC(=O)C(c2ccc(Cl)cc2)N1 (centres unmarked) | 11.7
Cc1cccc(NC(=O)CSc2nc3c([nH]c4ccccc43)c(=O)n2C)c1 | 5.54

Structure (SMILES) | hERG current change (%, negative = inhibition) at 10uM [%]
CN(CCc1ccccn1)C(=S)Nc1ccc(Cl)cc1Cl | -11.2
CCOc1nc2cnccc2n(CC(=O)Nc2ccccc2C(=O)OC)c1=O | -1.11
Cc1nc(SCC(=O)Nc2cccc(C(=O)O)c2)n[nH]1 | 24.9
COc1ccc(-c2nnc3n2N=C(C)CS3)cc1OC | -9.22
COc1ccc(-n2nc(C(=O)NCC(=O)N3CCN(c4ccccc4OC)CC3)c3ccccc3c2=O)cc1OC | -34.5
Cc1nn(CCc2n[nH]c(=S)n2-c2ccc(F)c(Cl)c2)c(C)c1[N+](=O)[O-] | 15.4
COc1ccc(NC(=O)c2noc3c2CCC3)cc1 | -4.67
CN(CC(=O)OCC(=O)c1c(N)n(C)c(=O)n(C)c1=O)S(=O)(=O)c1ccc(Cl)cc1 | -69.3
CCCCCc1nc2c(C#N)c(-c3ccc(Cl)cc3)ccn2n1 | 12
CCNC(=O)CC1C(=O)N(c2ccc(F)cc2)C(=O)N1Cc1cccs1 (centres unmarked) | -29.9
Cc1c(C)c2cc(Cl)c(OC(C)C(=O)NCCN3CCOCC3)cc2oc1=O (centres unmarked) | 2.2
O=C(Nc1ccc(NC(=O)c2ccco2)cc1)c1cnccn1 | 21.2
CCOc1ccccc1CNS(=O)(=O)c1ccc2[nH]c(=O)sc2c1 | -15.6
CC(C)(C)NC(=S)N1CCn2cccc2C1c1cccnc1 (centres unmarked) | 5.4
CCN(CC)c1ccc2c(-c3ccc(S(=O)(=O)[O-])cc3S(=O)(=O)[O-])c3ccc(=[N+](CC)CC)cc-3oc2c1.[Na+] | 11
O=C(Cn1[nH]c(=O)c2ccccc2c1=O)Nc1cccc(S(=O)(=O)N2CCCCCC2)c1 | -13.2
C/C(=N\NC(=O)c1ccc(N(C)C)cc1)c1cccnc1 | -6.75
O=C(CN1CCCCC1)N=Nc1c(O)[nH]c2ccccc12 | 4.68
Cc1noc(C)c1COC(=O)c1ccc(S(=O)(=O)N2CCCCC2)cc1 | -21.3
Oc1ccc(Cl)cc1-c1cc(-c2ccccc2)n[nH]1 | 18.2
O=C(CC(Cc1ccccc1)c1ccco1)NC1CCCCC1 (centres unmarked) | -3.48
CNC(=O)c1c(NC(=O)c2ccco2)sc2c1CCC2 | 16.8
COCC(=O)Nc1ccc(Nc2ccccc2)cc1 | -16.4

Structure (SMILES) | hERG current change (%, negative = inhibition) at 10uM [%]
CCCCc1nnc(SCC(=O)NC2CCCCC2)n1C | 15
COC(=O)C(NC(=O)c1c(C)nn(C)c1Cl)c1ccccc1 (centres unmarked) | 6.88
O=C(Nc1cccc(-c2ccc(F)cc2)c1)C1CCCN(C(=O)c2cscn2)C1 (centres unmarked) | -39.1
Cc1ccc(N)c([N+](=O)[O-])c1 | 16.4
COC(=O)CSc1nnc(C)c(=O)[nH]1 | 2
Cc1cc(NC(=O)c2ccc3c(c2)OCCO3)ccc1NC(=O)c1ccco1 | 8.5
CCOC(=O)/C(=N\Nc1ccccc1)S(=O)(=O)c1ccccc1 | -11.3
COc1cc(/C=N/NC(=O)[C@H](Cc2c[nH]c3ccccc23)NC(=O)OCC(C)C)cc([N+](=O)[O-])c1O | 10.3
COc1ccc(C(=O)N/N=C(\c2ccccc2)c2ccccn2)cc1 | -31.9
c1ccc(C2Nc3cccc4cccc(c34)N2)cc1 | 14
CC(C)(C)c1ccc(C(=O)NCCNC(=O)c2ccco2)cc1 | 0.435
CCOc1ccc(C(=O)Nc2ccc(N3CCN(C)CC3)cc2)cc1 | -50.2
Br.CC(=O)NNc1nc(-c2ccccc2)cs1 | 14.4
COc1ccc(-c2n[nH]c(C)c2-c2ccc(OC)c(OC)c2)c(O)c1 | -4.33
Cc1ccc(-n2nc(C)c3c(C)c(CCC(=O)NCC4CCCO4)c(=O)n(C)c32)cc1 (centres unmarked) | 14.4
CCCCCCC(=O)N(O)C1CC(=O)N(c2ccccc2)C1=O (centres unmarked) | 21.9
COCCN(C(=O)CC1CCCCC1)c1c(N)n(CC(C)C)c(=O)[nH]c1=O | 7.17
O=c1c2ccccc2cnn1Cc1n[nH]c(=S)n1-c1ccc(Cl)cc1Cl | 13.7
COc1ccc(/C(C)=N/Nc2ccc(C(=O)O)cc2)c(OC)c1.O=S(=O)(O)O | -2
C/C(CC(=O)Nc1cccc(Cl)c1C)=N\NC(=O)Cc1csc(N)n1 | 2.42
Oc1cccc(/C=N/N=C/c2cccc(O)c2O)c1O | 13.1
COc1ccccc1C(c1nnnn1CCc1ccccc1)N1CCN(c2ccccc2)CC1 (centres unmarked) | 1.89
Cc1ccc(N2C(=O)NC(=O)/C(=C/c3ccc(OC(=O)c4cccs4)cc3)C2=O)cc1 | -10.5

Structure (SMILES) | hERG current change (%, negative = inhibition) at 10uM [%]
C[C@@H]1C=C(C(=O)N2CCN(C)CC2)O[C@H](OCc2ccc(CO)cc2)C1 | 19.6
CSc1sc(C(=O)NN)c2c1C1(CCC2)SCCS1 | -3.81
O=C(COc1ccc(F)cc1)Nc1nc2c(s1)CCCC2 | 14.2
Cc1nc(-c2cccc(S(=O)(=O)N3CC(C)CC(C)C3)c2)cs1 (centres unmarked) | -1.88
COc1ccc(C(=O)Nc2ccc(C(=O)NCC3CCCO3)cc2)c(OC)c1OC (centres unmarked) | 11.9
COC(=O)Nc1nnc(-c2ccccc2OC)s1 | 2.64
N=c1n(CC(=O)c2ccc(Br)cc2)c2ccccc2n1Cc1ccccc1.[Br-] | -9.25
Cc1ccc(C(=O)NCC(C)(C)N2CCOCC2)s1 | 2.43
CN(C)/C=C1\Cc2ccccc2C1=O | 14.2
O=C(C(=O)N1CCCc2ccccc21)c1cn(CC(=O)N2CCOCC2)c2ccccc12 | -3.26
O=C(NCc1ccco1)C(c1ccccc1)N(Cc1cccnc1)C(=O)Cn1nnc2ccccc21 (centres unmarked) | -18.9
Cc1ccc(S(=O)(=O)Nc2ccccc2C(=O)OC(C)C(=O)Nc2ccc3ccccc3c2)cc1[N+](=O)[O-] (centres unmarked) | -3.11
O=C(CSCCN1C(=O)c2ccccc2C1=O)Nc1ccc2ccccc2c1 | -11.7
CCc1ccc(OCC2NCCc3cc(OC)c(OC)cc32)cc1 (centres unmarked) | -45.2
C=CCn1c(=O)c(C(=O)Nc2cccnc2)c(O)c2ccccc21 | -21
O=C(O)c1ccc(NC(=O)C(c2ccccc2)c2ccccc2)cc1 | 14.3
C=CCn1cc(C(=O)NCCOC)c(=O)c2cc(S(=O)(=O)N3CCCCCC3)ccc21 | -65.8
COC(=O)c1ccncc1C(=O)Nc1ccc(Oc2ncc(C(F)(F)F)cc2Cl)cc1 | -5.09
CCNc1c([N+](=O)[O-])ncn1C | -4.43
Cc1ccsc1/C=N/N1CCN(c2ccccc2)CC1 | 3.82

Reference: article PMC4336329 (PLoS ONE, 2015)
